Assay results as given in article PMC9911596 (Nature Communications, 2023).
Results are given in words; binding and its absence hold for the method and conditions named. Some binding calls cover weakened binding; strength is not graded here.

Sequences of proteins named here, by UniProt entry; tags and fusion partners are left off. Residues count along the entry.
UniProt P47075, residues 2-721: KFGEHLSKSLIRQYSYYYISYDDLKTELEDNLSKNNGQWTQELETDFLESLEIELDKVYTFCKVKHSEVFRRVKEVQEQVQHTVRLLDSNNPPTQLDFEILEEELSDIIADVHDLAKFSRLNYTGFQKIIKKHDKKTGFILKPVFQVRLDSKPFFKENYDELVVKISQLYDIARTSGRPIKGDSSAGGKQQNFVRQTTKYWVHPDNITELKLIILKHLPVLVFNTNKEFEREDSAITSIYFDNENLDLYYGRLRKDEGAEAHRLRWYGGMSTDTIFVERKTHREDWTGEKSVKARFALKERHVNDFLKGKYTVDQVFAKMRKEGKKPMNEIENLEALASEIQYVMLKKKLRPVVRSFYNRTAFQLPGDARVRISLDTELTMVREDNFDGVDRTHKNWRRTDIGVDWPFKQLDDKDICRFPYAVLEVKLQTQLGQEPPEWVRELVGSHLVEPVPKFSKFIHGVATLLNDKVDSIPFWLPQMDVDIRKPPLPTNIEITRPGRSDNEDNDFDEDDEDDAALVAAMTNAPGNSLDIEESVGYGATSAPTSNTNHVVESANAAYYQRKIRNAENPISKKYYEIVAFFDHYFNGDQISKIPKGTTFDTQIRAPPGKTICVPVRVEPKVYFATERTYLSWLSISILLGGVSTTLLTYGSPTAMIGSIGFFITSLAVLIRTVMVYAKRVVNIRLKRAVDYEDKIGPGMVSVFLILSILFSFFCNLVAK

Experiments:
Assay in all cases: tandem affinity co-purification (anti-Flag resin, then Strep-Tactin resin) with SDS-PAGE; three subunits co-expressed in Expi293F; complex purified by 3×Flag on Vtc3 and 2×Strep on Vtc4; no InsP6 added, 0.02% DDM
[1] = molecular target: T1, Vtc3_(K333A/K362A/K364A/Y380F) (Baker's yeast) (UniProt Q02725)
T1 sequence: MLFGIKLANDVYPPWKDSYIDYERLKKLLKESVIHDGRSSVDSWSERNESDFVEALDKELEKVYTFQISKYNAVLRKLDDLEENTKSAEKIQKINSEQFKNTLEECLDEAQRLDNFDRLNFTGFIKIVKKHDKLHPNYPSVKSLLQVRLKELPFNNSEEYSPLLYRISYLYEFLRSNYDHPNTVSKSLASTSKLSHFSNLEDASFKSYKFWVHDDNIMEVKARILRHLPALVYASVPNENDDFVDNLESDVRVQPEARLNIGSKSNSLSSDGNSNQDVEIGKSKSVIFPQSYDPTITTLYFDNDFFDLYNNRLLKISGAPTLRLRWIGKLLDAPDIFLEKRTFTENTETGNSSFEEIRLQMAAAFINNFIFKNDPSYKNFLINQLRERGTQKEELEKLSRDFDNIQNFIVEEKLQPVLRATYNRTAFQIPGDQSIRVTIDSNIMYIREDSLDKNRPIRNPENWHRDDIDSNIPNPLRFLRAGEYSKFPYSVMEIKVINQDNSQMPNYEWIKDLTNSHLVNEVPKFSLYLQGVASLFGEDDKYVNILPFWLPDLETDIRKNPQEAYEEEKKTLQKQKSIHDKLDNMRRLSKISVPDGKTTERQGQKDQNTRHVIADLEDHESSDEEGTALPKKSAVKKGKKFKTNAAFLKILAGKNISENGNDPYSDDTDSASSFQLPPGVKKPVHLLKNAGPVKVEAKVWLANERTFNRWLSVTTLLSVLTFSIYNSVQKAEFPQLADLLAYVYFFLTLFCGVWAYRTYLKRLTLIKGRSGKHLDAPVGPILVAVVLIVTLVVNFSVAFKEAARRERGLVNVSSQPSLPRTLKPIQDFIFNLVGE

[2] = molecular target: T2, Vtc3_(K694A/K698A/R705A/R709A) (Baker's yeast) (UniProt Q02725)
T2 sequence: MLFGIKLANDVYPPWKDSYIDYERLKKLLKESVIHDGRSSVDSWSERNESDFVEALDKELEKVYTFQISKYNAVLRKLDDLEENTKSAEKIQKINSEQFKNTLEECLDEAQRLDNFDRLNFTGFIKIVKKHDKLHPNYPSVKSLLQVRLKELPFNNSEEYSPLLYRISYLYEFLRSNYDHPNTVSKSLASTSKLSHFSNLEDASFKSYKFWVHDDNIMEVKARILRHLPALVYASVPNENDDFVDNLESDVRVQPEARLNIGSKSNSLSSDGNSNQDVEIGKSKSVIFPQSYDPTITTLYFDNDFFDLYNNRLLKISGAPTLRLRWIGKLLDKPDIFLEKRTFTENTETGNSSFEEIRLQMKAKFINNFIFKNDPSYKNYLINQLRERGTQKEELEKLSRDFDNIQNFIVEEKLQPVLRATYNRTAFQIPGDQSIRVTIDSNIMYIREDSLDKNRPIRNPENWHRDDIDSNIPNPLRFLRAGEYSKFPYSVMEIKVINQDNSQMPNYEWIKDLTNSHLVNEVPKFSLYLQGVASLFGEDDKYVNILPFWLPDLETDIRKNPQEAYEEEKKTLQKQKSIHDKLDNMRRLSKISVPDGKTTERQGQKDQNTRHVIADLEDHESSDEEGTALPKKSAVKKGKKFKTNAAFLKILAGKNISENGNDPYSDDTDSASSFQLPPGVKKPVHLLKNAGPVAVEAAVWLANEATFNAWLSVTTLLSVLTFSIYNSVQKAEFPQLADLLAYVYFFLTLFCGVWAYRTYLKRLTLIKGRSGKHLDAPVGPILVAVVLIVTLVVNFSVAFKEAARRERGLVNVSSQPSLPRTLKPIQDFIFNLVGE

[3] = molecular target: T3, Vtc3_(Y22F/K26A/K130A) (Baker's yeast) (UniProt Q02725)
T3 sequence: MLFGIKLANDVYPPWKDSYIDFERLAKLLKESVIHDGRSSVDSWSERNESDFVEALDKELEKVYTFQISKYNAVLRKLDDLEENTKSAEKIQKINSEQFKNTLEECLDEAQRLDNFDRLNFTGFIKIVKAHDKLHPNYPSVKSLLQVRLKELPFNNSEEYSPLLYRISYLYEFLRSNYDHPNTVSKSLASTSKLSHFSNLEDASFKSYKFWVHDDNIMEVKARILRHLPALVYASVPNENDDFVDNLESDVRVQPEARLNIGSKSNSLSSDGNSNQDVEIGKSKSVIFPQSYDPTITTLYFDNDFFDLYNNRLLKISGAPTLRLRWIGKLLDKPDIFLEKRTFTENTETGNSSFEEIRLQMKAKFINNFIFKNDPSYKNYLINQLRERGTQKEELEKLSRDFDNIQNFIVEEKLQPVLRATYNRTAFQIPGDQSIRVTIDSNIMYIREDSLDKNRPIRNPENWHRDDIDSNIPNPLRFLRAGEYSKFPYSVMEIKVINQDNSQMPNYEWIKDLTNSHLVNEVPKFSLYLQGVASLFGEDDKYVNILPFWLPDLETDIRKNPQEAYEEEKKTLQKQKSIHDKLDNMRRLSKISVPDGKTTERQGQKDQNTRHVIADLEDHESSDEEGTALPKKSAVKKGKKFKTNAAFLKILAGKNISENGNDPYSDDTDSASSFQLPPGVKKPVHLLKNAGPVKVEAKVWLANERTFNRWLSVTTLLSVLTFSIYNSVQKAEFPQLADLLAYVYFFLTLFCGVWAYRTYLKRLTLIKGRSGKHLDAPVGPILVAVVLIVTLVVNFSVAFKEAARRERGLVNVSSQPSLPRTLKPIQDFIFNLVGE

Measured: binding

Vtc4 (from UniProt P47075 2-721)
binds: all assays above

B1: Vtc1 (natural protein, Baker's yeast)
chain: SSAPLLQRTPGKKIALPTRVEPKVFFANERTFLSWLNFTVMLGGLGVGLLNFGDKIGRVSAGLFTFVAMGTMIYALVTYHWRAAAIRRRGSGPYDDRLGPTLLCFFLLVAVIINFILRLKYNDANTKL
notes: Vtc1, yeast, UniProt P40046; codon-optimized DNA in the pMlink vector; Three copies of Vtc1 stand in the Vtc1/Vtc3/Vtc4 complex (3:1:1); also called Vtc1A; Vtc1B; source: Expi293F cells, transiently cotransfected with the Vtc3 and Vtc4 plasmids; purified as part of the VTC complex (anti-Flag resin, Strep-Tactin resin; SEC for the cryo-EM sample)
binds: all assays above
